Results from patent US20230002488A1.

T1: MICA on MDA-MB-231 cells (human), Q29983
T1 chain: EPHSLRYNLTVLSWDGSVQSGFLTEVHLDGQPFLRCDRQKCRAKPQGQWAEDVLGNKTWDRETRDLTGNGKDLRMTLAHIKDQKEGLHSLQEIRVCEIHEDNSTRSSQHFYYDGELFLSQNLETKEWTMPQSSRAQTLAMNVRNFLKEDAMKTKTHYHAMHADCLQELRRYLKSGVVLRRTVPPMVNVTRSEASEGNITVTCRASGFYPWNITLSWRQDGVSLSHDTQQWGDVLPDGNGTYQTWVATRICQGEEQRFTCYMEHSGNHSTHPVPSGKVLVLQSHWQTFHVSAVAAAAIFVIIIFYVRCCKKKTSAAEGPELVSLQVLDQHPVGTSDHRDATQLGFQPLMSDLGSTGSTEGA


Assays:
[1] = target: human PD-L1 (human), Q9NZQ7; test: BLI (Octet), GNC on AHC sensor, 100 nM antigen as analyte, 1:1 fit
[2] = target: human EGFR (human), P00533; test: as above
[3] = target: human 4-1BB (human), Q07011; test: BLI (Octet), GNC on AHC sensor, 100 nM antigen as analyte, 1:1 fit; D4 is the 4-1BBL trimer
[4] = target: T1, MICA on MDA-MB-231 cells (human), Q29983; test: cell-based or functional assay

Row | Kd [1] | Kd [2] | Kd [3] | TDCC EC50, MDA-MB-231 target cells [4] | Binder
1 | 0.521 nM | 7.48 nM | 65.5 nM |  | SI-55P10 (antibody, human IgG1, kappa) heavy: EIVLTQSPSTLSVSPGERATFSCRASQSIGTNIHWYQQKPGKPPRLLIKYASESISGIPDRFSGSGSGTEFTLTISSVQSEDFAVYYCQQNNNWPTTFGPGTKLTVLGGGGSGGGGSGGGGSGGGGSQVQLQQSGPGLVKPSETLSITCTVSGFSLTNYGVHWIRQAPGKGLEWLGVIWSGGNTDYNTPFTSRFTITKDNSKNQVYFKLRSVRADDTAIYYCARALTYYDYEFAYWGQGTLVTVSSGGGGSGGGGSEVQLVESGGGLVQPGGSLRLSCAASGFTISTNAMSWVRQAPGKGLEWIGVITGRDITYYASWAKGRFTISRDNSKNTLYLQMNSLRAEDTAVYYCARDGGSSAITSNNIWGQGTLVTVSSASTKGPSVFPLAPSSKSTSGGTAALGCLVKDYFPEPVTVSWNSGALTSGVHTFPAVLQSSGLYSLSSVVTVPSSSLGTQTYICNVNHKPSNTKVDKRV[sequence of human IgG1 Fc with changes not given]GGGGSGGGGSEVQLLESGGGLVQPGGSLRLSCAASGFSFSSGYDMCWVRQAPGKGLEWIACIAAGSAGITYDANWAKGRFTISRDNSKNTLYLQMNSLRAEDTAVYYCARSAFSFDYAMDLWGQGTLVTVSSGGGGSGGGGSGGGGSGGGGSDIQMTQSPSTLSASVGDRVTITCQASQSISSHLNWYQQKPGKAPKLLIYKASTLASGVPSRFSGSGSGTEFTLTISSLQPDDFATYYCQQGYSWGNVDNVFGGGTKVEIKGGGGSGGGGSGREGPELSPDDPAGLLDLRQGMFAQLVAQNVLLIDGPLSWYSDPGLAGVSLTGGLSYKEDTKELVVAKAGVYYVFFQLELRRVVAGEGSGSVSLALHLQPLRSAAGAAALALTVDLPPASSEARNSAFGFQGRLLHLSAGQRLGVHLHTEARARHAWQLTQGATVLGLFRVTPEIPAGLGSTGSGSKPGSGEGSTKGREGPELSPDDPAGLLDLRQGMFAQLVAQNVLLIDGPLSWYSDPGLAGVSLTGGLSYKEDTKELVVAKAGVYYVFFQLELRRVVAGEGSGSVSLALHLQPLRSAAGAAALALTVDLPPASSEARNSAFGFQGRLLHLSAGQRLGVHLHTEARARHAWQLTQGATVLGLFRVTPEIPAGLGGGGSGGGGSREGPELSPDDPAGLLDLRQGMFAQLVAQNVLLIDGPLSWYSDPGLAGVSLTGGLSYKEDTKELVVAKAGVYYVFFQLELRRVVAGEGSGSVSLALHLQPLRSAAGAAALALTVDLPPASSEARNSAFGFQGRLLHLSAGQRLGVHLHTEARARHAWQLTQGATVLGLFRVTPEIPAGL light: ENVLTQSPASLSASPGERVTITCSASSSVSYMHWYQQKPGQAPKLWIYDTSKLASGVPSRFSGSGSGNDHTLTISSMEPEDFATYYCFQGSVYPFTFGQGTKVTVLGGGGSGGGGSGGGGSGGGGSQVTLKESGPGLVQPGQTLRLTCAFSGFSLSTSGMGVGWIRQPPGKGLEWLAHIWWDDDKRYNPALKSRLTISKDTSKNQVYLQMNSLDAEDTAVYYCARMELWSYYFDYWGQGTLVTVSSGGGGSGGGGSDVVMTQSPSTLSASVGDRVTINCQASESISSWLAWYQQKPGKAPKLLIYEASKLASGVPSRFSGSGSGTEFTLTISSLQPDDFATYYCQGYFYFISRTYVNSFGGGTKVEIKRTVAAPSVFIFPPSDEQLKSGTASVVCLLNNFYPREAKVQWKVDNALQSGNSQESVTEQDSKDSTYSLSSTLTLSKADYEKHKVYACEVTHQGLSSPVTKSFNRGEC
2 |  |  |  | 0.000109 nM | SI-49P7 (protein) heavy: EIVMTQSPSTLSASVGDRVIITCQASESISSWLAWYQQKPGKAPKLLIYEASKLASGVPSRFSGSGSGAEFTLTISSLQPDDFATYYCQGYFYFISRTYVNSFGCGTKLTVLGSTGSGSKPGSGEGSTKGEVQLVESGGGLVQPGGSLRLSCTASGFTISTNAMSWVRQAPGKCLEWVGVITGRDITYYASWAKGRFTISRDTSKNTVYLQMNSLRAEDTAVYYCARDGGSSAITSNNIWGQGTLVTVSTGGGGSGGGGSFLNSLFNQEVQIPLTESYCGPCPKNWICYKNNCYQFFDESKNWYESQASCMSQNASLLKVYSKEDQDLLKLVKSYHWMGLVHIPTNGSWQWEDGSILSPNLLTIIEMQKGDCALYASSFKGYIENCSTPNTYICMQRTVASTKGPSVFPLAPSSKSTSGGTAALGCLVKDYFPEPVTVSWNSGALTSGVHTFPAVLQSSGLYSLSSVVTVPSSSLGTQTYICNVNHKPSNTKVDKRV[sequence of human IgG1 Fc with L234A L235A N297A K322A (EU numbers) not given]GGGGSGGGGSEVQLLESGGGLVQPGGSLRLSCAASGFSFSSGYDMCWVRQAPGKCLEWIACIAAGSAGITYDANWAKGRFTISRDNSKNTLYLQMNSLRAEDTAVYYCARSAFSFDYAMDLWGQGTLVTVSSGGGGSGGGGSGGGGSGGGGSDIQMTQSPSTLSASVGDRVTITCQASQSISSHLNWYQQKPGKAPKLLIYKASTLASGVPSRFSGSGSGTEFTLTISSLQPDDFATYYCQQGYSWGNVDNVFGCGTKVEIKGGGGSGGGGSGREGPELSPDDPAGLLDLRQGMFAQLVAQNVLLIDGPLSWYSDPGLAGVSLTGGLSYKEDTKELVVAKAGVYYVFFQLELRRVVAGEGSGSVSLALHLQPLRSAAGAAALALTVDLPPASSEARNSAFGFQGRLLHLSAGQRLGVHLHTEARARHAWQLTQGATVLGLFRVTPEIPAGLGSTGSGSKPGSGEGSTKGREGPELSPDDPAGLLDLRQGMFAQLVAQNVLLIDGPLSWYSDPGLAGVSLTGGLSYKEDTKELVVAKAGVYYVFFQLELRRVVAGEGSGSVSLALHLQPLRSAAGAAALALTVDLPPASSEARNSAFGFQGRLLHLSAGQRLGVHLHTEARARHAWQLTQGATVLGLFRVTPEIPAGLGGGGSGGGGSREGPELSPDDPAGLLDLRQGMFAQLVAQNVLLIDGPLSWYSDPGLAGVSLTGGLSYKEDTKELVVAKAGVYYVFFQLELRRVVAGEGSGSVSLALHLQPLRSAAGAAALALTVDLPPASSEARNSAFGFQGRLLHLSAGQRLGVHLHTEARARHAWQLTQGATVLGLFRVTPEIPAGL light: ENVLTQSPASLSASPGERVTITCSASSSVSYMHWYQQKPGQAPKLWIYDTSKLASGVPSRFSGSGSGNDHTLTISSMEPEDFATYYCFQGSVYPFTFGQGTKLEIKGSTGSGSKPGSGEGSTKGQVTLKESGPGLVQPGQTLRLTCAFSGFSLSTSGMGVGWIRQPPGKGLEWLAHIWWDDDKRYNPALKSRLTISKDTSKNQVYLQMNSLDAEDTAVYYCARMELWSYYFDYWGQGTLVTVSSGGGGSGGGGSGGGGSFLNSLFNQEVQIPLTESYCGPCPKNWICYKNNCYQFFDESKNWYESQASCMSQNASLLKVYSKEDQDLLKLVKSYHWMGLVHIPTNGSWQWEDGSILSPNLLTIIEMQKGDCALYASSFKGYIENCSTPNTYICMQRTVRTVAAPSVFIFPPSDEQLKSGTASVVCLLNNFYPREAKVQWKVDNALQSGNSQESVTEQDSKDSTYSLSSTLTLSKADYEKHKVYACEVTHQGLSSPVTKSFNRGEC
